According to ChEMBL document CHEMBL4888484, “Replenishing the malaria drug discovery pipeline: Screening and hit evaluation of the MMV Hit Generation Library 1 (HGL1) against asexual blood stage Plasmodium falciparum ,using a nano luciferase reporter read-out” (2022):
The campaign covered roughly 150,000 compounds. About 540 (0.36%) showed an effect of 50% or more. The list shows a part of the results.

The molecules below were run on Plasmodium falciparum (assay: Primary screen in NF54 nanoGlo assay, in single point, at 2uM, 72h; a lower Z score goes with more inhibition). Conditions: timepoint 72 hour.
Format: functional, Erythrocyte
`Cc1ccc2ncc(CN3CCN([C@@H](C)C(=O)NC4CCCC4)CC3)n2c1` was tested, and the “% Inhibition” value was 1% and the Z score was -0.14.
In the case of `COc1ccc(-c2nc(CCNC(=O)C(F)(F)F)n3ccccc23)cc1`, the “% Inhibition” value is reported as -6% and the Z score is reported as 0.88.
In the case of `COCCn1c(N)c(C(=O)CN(C)c2cc(C)ccc2C)c(=O)[nH]c1=O`, the “% Inhibition” value is reported as -4% and the Z score is reported as 0.48.
With `Cc1cccc(C2C(C(=O)NC3CC3)c3ccccc3C(=O)N2C2CC2)c1` (centres undefined) the “% Inhibition” value was -12% and the Z score was 1.11.
`Clc1c(CN2CC[C@H](N3CCCCC3)C2)[nH]c2ccccc12` was tested, and the “% Inhibition” value was 0% and the Z score was 0.08.
`Cc1cncc(C(=O)NCc2cccnc2Oc2ccc(F)cc2F)c1` was tested, and the “% Inhibition” value was 2% and the Z score was -0.37.
In the case of `COCCC(=O)N1CC[C@@H]2OCc3cccc(c3)Oc3cccc(c3)CCC(=O)N(C)CC(=O)N[C@@H]2C1`, the “% Inhibition” value is reported as -5% and the Z score is reported as 0.66.
With `COC(=O)NCC(=O)N1C[C@@H]2CC[C@H]1CN(CCCc1ccccc1)C2` the “% Inhibition” value was 7% and the Z score was -1.06.
In the case of `O=C(c1c[nH]c(=O)[nH]1)N1CCC(c2nnc3n2CCCCC3)CC1`, the “% Inhibition” value is reported as 3% and the Z score is reported as -0.54.
`CNC(=O)NC[C@H]1COCCN1C(=O)c1ccc(C(F)F)c(F)c1` was tested, and the “% Inhibition” value was -8% and the Z score was 0.91.
With `CC(C)(C)OC(=O)N[C@H]1CCN(C(=O)c2cc(F)ccc2F)C1` the “% Inhibition” value was 2% and the Z score was -0.17.
`Cc1cc(N(C)CCC2CC2)nc([C@H](C)N(C)CCC2CC2)n1` was tested, and the “% Inhibition” value was 59% and the Z score was -9.38.
For `CC1CCCC(OCC(=O)NC(C)CCC2CCCO2)C1` (centres undefined), the “% Inhibition” value was -5% and the Z score was 0.43.
With `C=CCCC(=O)N1CCC(N2C(=O)COCC2=O)CC1` the “% Inhibition” value was 10% and the Z score was -1.34.
With `CN1CC(=O)N(CCOCC(F)(F)C(F)(F)F)C1=O` the “% Inhibition” value was -12% and the Z score was 1.77.
In the case of `c1ccc(-c2ccc(-c3n[nH]c4c3CN(CCCn3cnnn3)CC4)cc2)cc1`, the “% Inhibition” value is reported as 6% and the Z score is reported as -1.25.
In the case of `COCCCn1ccc(Nc2ncc(Br)cn2)n1`, the “% Inhibition” value is reported as 8% and the Z score is reported as -0.92.
For `C[C@@H](c1cccc(-c2cn(CCn3cccn3)nn2)c1)N(C)C`, the “% Inhibition” value was 1% and the Z score was -0.08.
With `COc1ccc(-c2c(C)noc2NC(C)=O)cc1S(=O)(=O)N(C)c1ccc(C)cc1` the “% Inhibition” value was -13% and the Z score was 1.9.
With `C[C@@H]1CN(C(=O)c2ccc(F)c(Cl)c2)CC[C@@]1(O)C1CCOCC1` the “% Inhibition” value was 2% and the Z score was -0.38.
In the case of `Cc1ncsc1CCNC(=O)[C@H]1CCN(c2ccc(C(F)(F)F)cn2)C1`, the “% Inhibition” value is reported as -4% and the Z score is reported as 0.7.
`O=C(CC1CCCC1)N1CCCc2cnc(N3CCOCC3)nc21` was tested, and the “% Inhibition” value was 2% and the Z score was -0.2.
For `O=C(O)CC1(CC(=O)Nc2cc(N3CCCC3=O)ccc2F)CCCCC1`, the “% Inhibition” value was -4% and the Z score was 0.8.
With `CC[C@H](OC)C(=O)NCCc1cccc(Cl)c1` the “% Inhibition” value was -2% and the Z score was 0.2.
For `CCOc1ccc(NC(=O)Cn2c(C)cc3nc4n(c(=O)c32)CCCC4)cc1`, the “% Inhibition” value was -3% and the Z score was 0.47.
With `Cc1ccc(-n2nc(C(=O)N3CCOCC3)c(=O)n(Cc3ccccc3)c2=O)cc1` the “% Inhibition” value was -7% and the Z score was 1.09.
In the case of `C[C@H](NS(=O)(=O)c1ccc2c(c1)CCN2C(=O)N1CCCC1)C(=O)Nc1nccs1`, the “% Inhibition” value is reported as -12% and the Z score is reported as 2.01.
With `Cc1[nH]c2ccccc2c1C1CCN(C(=O)Cn2ccccc2=O)CC1` the “% Inhibition” value was -10% and the Z score was 1.47.
For `CCOC(=O)N1CCC(NC(=O)c2nnn(-c3cc(Cl)ccc3OC)c2C)CC1`, the “% Inhibition” value was 26% and the Z score was -2.9.
In the case of `CC(C)CC(=O)N1CCC[C@H]1C(=O)N[C@H]1CC[C@H](NC(=O)c2ccccc2)CC1`, the “% Inhibition” value is reported as -4% and the Z score is reported as 0.59.
In the case of `CN(C)C1CCCC(C(=O)NCC2CCCC2)C1` (centres undefined), the “% Inhibition” value is reported as -10% and the Z score is reported as 1.02.
In the case of `Cc1c(C(=O)NCCS(N)(=O)=O)nnn1-c1cccc2ncccc12`, the “% Inhibition” value is reported as -6% and the Z score is reported as 0.94.
`CC(=O)c1cc(-c2nc(-c3cccnn3)no2)c(=O)[nH]c1C` was tested, and the “% Inhibition” value was -17% and the Z score was 2.87.
For `Cc1cc(C)nc(O[C@H]2CCCN(C(=O)c3ccccc3C)C2)n1`, the “% Inhibition” value was -2% and the Z score was 0.28.
In the case of `C[C@H](NC(=O)c1cncc(O)c1)c1ncnn1C`, the “% Inhibition” value is reported as -7% and the Z score is reported as 0.98.
`O=C(c1ccc2[nH]ccc2c1)N1CCC(F)(F)C1` was tested, and the “% Inhibition” value was -7% and the Z score was 0.93.
`CC(CCCc1ccccc1)C(=O)N1CCCC(c2nnn[nH]2)C1` (centres undefined) was tested, and the “% Inhibition” value was 4% and the Z score was -0.48.
`C[C@@H]1Oc2ccc(S(=O)(=O)N3CCC(C(=O)N4CCN(c5ccccc5)CC4)CC3)cc2NC1=O` was tested, and the “% Inhibition” value was -9% and the Z score was 1.8.
In the case of `O=C1CN(c2ccc(NC(=O)NCc3cccnc3)cn2)CCN1`, the “% Inhibition” value is reported as -10% and the Z score is reported as 1.96.
In the case of `C[C@@H](NS(=O)(=O)c1ccc2c(c1)OCCO2)c1ccccc1`, the “% Inhibition” value is reported as 31% and the Z score is reported as -3.5.
In the case of `CN(C)C(=O)NC1CCN(c2cccs2)CC1`, the “% Inhibition” value is reported as -19% and the Z score is reported as 2.31.
In the case of `NS(=O)(=O)c1ccc(CNC(=O)C2CN(C(c3ccccc3)c3ccccc3)C2)cc1`, the “% Inhibition” value is reported as -11% and the Z score is reported as 1.38.
For `CC(C)c1noc(CN2CCC(N3CCC[C@H](C(=O)N4CCCC4)C3)CC2)n1`, the “% Inhibition” value was -6% and the Z score was 1.21.
For `COc1ccc(NC(=O)CC[C@H]2CCCN(C(=O)C#Cc3ccccc3)C2)c(C)c1`, the “% Inhibition” value was -24% and the Z score was 2.22.
In the case of `CCc1noc(C2(n3cccn3)CC2)n1`, the “% Inhibition” value is reported as -8% and the Z score is reported as 0.8.
`C=C[C@H](CO)NC(=O)c1[nH]nc(C(F)(F)F)c1C` was tested, and the “% Inhibition” value was -15% and the Z score was 2.
With `CC1CC(C)CN(C(=O)CN2CCCCCC2=O)C1` (centres undefined) the “% Inhibition” value was 3% and the Z score was -0.35.
`Cc1nnc(NCc2ccc3[nH]c(C)c(C)c3c2)c(C#N)c1C` was tested, and the “% Inhibition” value was -3% and the Z score was 0.41.
`O=C(O)C1C2C=CC(C2)C1C(=O)N1CCN(c2ccc(F)cc2)CC1` (centres undefined) was tested, and the “% Inhibition” value was -8% and the Z score was 1.13.
For `Cc1cc(C)cc(NC(=O)CC(=O)N[C@H]2CCCC[C@@H]2O)c1`, the “% Inhibition” value was -3% and the Z score was 0.3.
For `CCN(C(=O)CCC(=O)N1CCC(C)(c2noc(-c3ccccc3)n2)CC1)c1ccccc1`, the “% Inhibition” value was -22% and the Z score was 2.81.
With `CCn1ccc(CN2CC[C@]34C(=O)N(CC(=O)N(C)CCCOc5cccc(c5)[C@H]23)c2ccccc24)n1` the “% Inhibition” value was -4% and the Z score was 0.68.
